Assay results taken from the RNAGym collection of RNA variant scans (doi:10.1093/nar/gkz1192).
Read counts are not given, so values of variants with three or more changes are uncertain.

B1: CPEB3 Ribozyme (parent)
chain: UAACAGGGGGCCACAGCAGAAGCGUUCACGUCGCAGCCCCUGUCAGAUUCUGGUGAAUCUGCGAAUUCUGCUGUAUAUCUC

Variants of: B1
Assay: self-cleavage, relative activity (ratio to wild type); higher = more cleavage; in vitro, sequencing
Method in brief: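 After error-prone PCR and barcoding, CPEB3 ribozyme mutant libraries were transcribed with T7 RNA polymerase at 37°C for 5 hours, then given 15 min with DNase I before an EDTA stop, and they cleaved during both steps. Reverse transcription with template switching preceded Illumina sequencing. Relative activity divides a variant's cleaved/total read fraction by the unmutated ribozyme's. At least 5 reads were required per variant, and three batches were averaged.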

Row | Variant | self-cleavage
1 | UAACAGGGGGCCACAGCAGAAGCGUUCACGUCGCAGCCCCUGUCUGAUUCUGGUGAAUCUGCGAAUUCUGCCGUAUACCUC | 0.71
2 | UAACAGGGGGCCACAGCAGAAGCGUUCACGUCGCAGCCCCUGUCUGAUUCUGGUGAAUCUGCGAAUUCUGCCGUAUACCAC | 0.67
3 | UAACAGGGGGCCACAGCAGAAGCGUUCACGUCGCAGCCCCUGUCUGAUUCUGGUGAAUCUGCGAAUUCUGCUGUAUAUCCU | 0.65
4 | UAACAGGGGGCCACAGCAGAAGCGUUCACGUCGCAGCCCCUGUCUGAUUCUGGUGAAUCUGCGAAUUCUGCUGUAUAUCGU | 0.87
5 | UAACAGGGGGCCACAGCAGAAGCGUUCACGUCGCAGCCCCUGUCAACUUCUGGUGAAUCUGCGAAUUCUGCUGUGUAUCUC | 0.11
6 | UAACAGGGGGCCACAGCAGAAGCGUUCACGUCGCAGCCCCUGUCAAGUUCUGGUGAAUCUGCGAAUUCUGCUGUAUAUCCC | 0.23
7 | UAACAGGGGGCCACAGCAGAAGCGUUCACGUCGCAGCCCCUGUCAAAUUCUGGUGGAUCUGCGGAUUCUACUGUAUAUCUC | 0.08
8 | UAACAGGGGGCCACAGCAGAAGCGUUCACGUCGCAGCCCCUGUCAAAUUCUGGUGAAUCUGCGGAUUCUGCUGUAAAUCUC | 0.23
9 | UAACAGGGGGCCACAGCAGAAGCGUUCACGUCGCAGCCCCUGUCAAACUAUGGUGAAUCUGCGAAUCCUGCUGUAUAUCUC | 0.08
10 | UAACAGGGGGCCACAGCAGAAGCGUUCACGUCGCAGCCCCUGUCAAAUUCCGGUGAAUCUGCGAUUUCUGCUGUAUAUCUC | 0.13
11 | UAACAGGGGGCCACAGCAGAAGCGUUCACGUCGCAGCCCCUGUCAAAUUCUGGAGAUUCUGCGAAUUCUGCUGUAUGUCUC | 0.07
12 | UAACAGGGGGCCACAGCAGAAGCGUUCACGUCGCAGCCCCUGUCAAAUUCUGGCGAACCUGCGAAUUCCGCUGUAUAUCUC | 0.06
13 | UAACAGGGGGCCACAGCAGAAGCGUUCACGUCGCAGCCCCUGUCAAAUUCUGGUGAAUCCGCGAAUUCUGCUGUGUAUCUC | 0.07
14 | UAACAGGGGGCCACAGCAGAAGCGUUCACGUCGCAGCCCCUGUCAAAUUCUGGUGAAUCCGCGAAUUCCGCUGUAUAUCUC | 0.11
15 | UAACAGGGGGCCACAGCAGAAGCGUUCACGUCGCAGCCCCUGUCACGUUCUGGUGAAUCUGCGAAUUACGCCGUAUAUCUC | 0.15
16 | UAACAGGGGGCCACAGCAGAAGCGUUCACGUCGCAGCCCCUGUCACAUUCAGGUGAAUCUGUGAAUUCUGCUGUAUAUCUC | 0.2
17 | UAACAGGGGGCCACAGCAGAAGCGUUCACGUCGCAGCCCCUGUCACAUUCUGGUGAAUCUGCGAAUUCUGCCGUAUGUCUC | 0.2

Row | Variant | self-cleavage
18 | UAACAGGGGGCCACAGCAGAAGCGUUCACGUCGCAGCCCCUGUCAUGUUCUGGUGAACCUGCGACUUUUGCUGUAUAUCUC | 0.1
19 | UAACAGGGGGCCACAGCAGAAGCGUUCACGUCGCAGCCCCUGUCAUAUUCUGGUGGAUCUGCGAAUUCUGCUAUAUAUCUC | 0.41
20 | UAACAGGGGGCCACAGCAGAAGCGUUCACGUCGCAGCCCCUGUCAUAUUCUGGUGUAUCUGAGAAUUCUGCUGUAUAUCCC | 0.1
21 | UAACAGGGGGCCACAGCAGAAGCGUUCACGUCGCAGCCCCUGUCAUAUUCUGGUGAAUCUGCGGGUUCUGCUGUAUAUCUC | 0.17
22 | UAACAGGGGGCCACAGCAGAAGCGUUCACGUCGCAGCCCCUGUCAUAUUCUGGUGAAUCUGCGGAUUCAGCUGUAUAUCCC | 0.19
23 | UAACAGGGGGCCACAGCAGAAGCGUUCACGUCGCAGCCCCUGUCAUAUUCUGGUGAAUCUGGGAAUUCCGCUGUAUAUCUC | 0.18
24 | UAACAGGGGGCCACAGCAGAAGCGUUCACGUCGCAGCCCCUGUCAUACUCUGGGGAAUCUGCGAAUUCUGCUGUAUAUCCC | 0.09
25 | UAACAGGGGGCCACAGCAGAAGCGUUCACGUCGCAGCCCCUGUCAUAUUCCGGUGAAUCUGCGGAUUCUGCCGUAUAUCUC | 0.1
26 | UAACAGGGGGCCACAGCAGAAGCGUUCACGUCGCAGCCCCUGUCAUAUUCCGGUGAAUCUGCGUAAUCUGCUGUAUACCUC | 0.13
27 | UAACAGGGGGCCACAGCAGAAGCGUUCACGUCGCAGCCCCUGUCAUAUUCUGGCGACUCUGCGAAUUCUGUUAUAUAUCUC | 0.12
28 | UAACAGGGGGCCACAGCAGAAGCGUUCACGUCGCAGCCCCUGUCAUAUUCUGGUGAACCCGCGAAUUCUGCUGUAUGUCUC | 0.13
29 | UAACAGGGGGCCACAGCAGAAGCGUUCACGUCGCAGCCCCUGUCAUAUUCUGGUGAAUCCGCGGAUUCUGUUGUAUAUCUC | 0.13
30 | UAACAGGGGGCCACAGCAGAAGCGUUCACGUCGCAGCCCCUGUCAUAUUCUGGUGAAUCUGCGAAUCCUGCAGUAUAUCUC | 0.3
31 | UAACAGGGGGCCACAGCAGAAGCGUUCACGUCGCAGCCCCUGUCAGCUUCUGGUGGACCUGCGAAGUCUGCUGUAUAUCUC | 0.18
32 | UAACAGGGGGCCACAGCAGAAGCGUUCACGUCGCAGCCCCUGUCAGCUUCUGAUGAAUCUGCGAAUUCUGCUGUAUGUCUC | 0.73
33 | UAACAGGGGGCCACAGCAGAAGCGUUCACGUCGCAGCCCCUGUCAGCUUCUGAUGAAUCUGCGAAUUCUGCAGCAUAUCUC | 0.99
34 | UAACAGGGGGCCACAGCAGAAGCGUUCACGUCGCAGCCCCUGUCAGCUUCUGGUGAAUCUGCCGAUUCUGCUGUAUAUCUC | 0.22
